From paper PMC4336329 (PLoS ONE, 2015) come the findings set out here.

Among all 310,000 compounds or so, about 14,000 (4.5%) showed an effect of 50% or more. Effects have a minus sign here. This is one part of the list.
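Further: peak tail current of the secondary pulse compared with the same well before compound.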

The target of this assay is human ether-à-go-go-related gene (hERG) potassium channel (human, UniProt Q12809). Briefly: primary screen, population patch clamp on CHO cells stably expressing hERG.
Sequence of human ether-à-go-go-related gene (hERG) potassium channel (Q12809 whole entry, looked up): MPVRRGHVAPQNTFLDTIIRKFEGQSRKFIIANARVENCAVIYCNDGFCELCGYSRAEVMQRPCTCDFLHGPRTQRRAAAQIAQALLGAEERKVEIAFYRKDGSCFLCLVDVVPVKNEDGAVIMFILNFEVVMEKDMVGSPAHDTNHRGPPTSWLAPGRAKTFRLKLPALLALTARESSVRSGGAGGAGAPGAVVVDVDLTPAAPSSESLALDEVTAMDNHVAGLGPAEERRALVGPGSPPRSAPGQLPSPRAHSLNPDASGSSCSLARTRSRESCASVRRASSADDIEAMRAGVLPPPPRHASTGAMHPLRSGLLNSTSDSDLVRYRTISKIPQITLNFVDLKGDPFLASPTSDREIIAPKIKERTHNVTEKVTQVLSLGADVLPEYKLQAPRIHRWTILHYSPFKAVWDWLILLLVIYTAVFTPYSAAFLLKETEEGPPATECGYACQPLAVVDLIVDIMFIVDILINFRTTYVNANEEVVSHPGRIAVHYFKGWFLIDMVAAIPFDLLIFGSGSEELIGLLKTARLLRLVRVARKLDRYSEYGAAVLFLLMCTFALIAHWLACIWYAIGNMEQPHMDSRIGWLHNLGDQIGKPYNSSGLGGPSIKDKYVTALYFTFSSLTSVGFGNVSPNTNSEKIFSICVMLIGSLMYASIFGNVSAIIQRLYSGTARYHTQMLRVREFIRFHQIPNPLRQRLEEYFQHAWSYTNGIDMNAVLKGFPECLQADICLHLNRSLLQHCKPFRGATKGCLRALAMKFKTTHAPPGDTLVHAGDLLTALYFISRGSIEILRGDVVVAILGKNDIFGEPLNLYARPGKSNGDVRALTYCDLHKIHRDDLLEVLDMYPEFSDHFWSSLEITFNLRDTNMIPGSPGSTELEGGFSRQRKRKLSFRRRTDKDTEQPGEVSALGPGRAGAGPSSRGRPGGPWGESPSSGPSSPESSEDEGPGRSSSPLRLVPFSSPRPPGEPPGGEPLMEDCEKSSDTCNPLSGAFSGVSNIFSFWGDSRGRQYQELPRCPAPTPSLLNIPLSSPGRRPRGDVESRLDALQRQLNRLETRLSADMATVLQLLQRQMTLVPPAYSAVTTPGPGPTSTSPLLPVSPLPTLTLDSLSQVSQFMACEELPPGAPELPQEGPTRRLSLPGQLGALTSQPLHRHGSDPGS
For the molecule `C[C@@H](C(=O)O)[C@H]1C[C@]1(C)[C@H](NC(=O)OCc1ccccc1)c1ccccc1`, the “hERG current change (%, negative = inhibition) at 10uM” value is listed as 4.41%.

Regarding `CC(C)c1ccc(CN(C(=O)/C=C/c2ccco2)C2CCS(=O)(=O)C2)cc1` (centres unmarked), the “hERG current change (%, negative = inhibition) at 10uM” value was -13.6%.

Turning to `CN(C)S(=O)(=O)c1ccc(Cl)c(NC(=O)CN2C(=O)NC3(CCc4ccccc43)C2=O)c1` (centres unmarked), the “hERG current change (%, negative = inhibition) at 10uM” value is -18%.

Take `O=C(C[n+]1cc(-c2ccc(Cl)cc2)n2c1CCC2)Nc1nc(-c2ccc(F)cc2)cs1.[Cl-]`: the “hERG current change (%, negative = inhibition) at 10uM” value is recorded as -48.4%.

For the molecule `Cc1ccc(C(C)C)cc1OCC(=O)NC1CCCCCCC1`, the “hERG current change (%, negative = inhibition) at 10uM” value is recorded as -2.45%.

In the case of `O=C(c1cc(COc2ccc(F)cc2Cl)on1)N1CCC(c2ccncc2)CC1`, the “hERG current change (%, negative = inhibition) at 10uM” value is on record as -72.5%.

Turning to `O=C(O)c1ccc(Nc2cc(Cl)c3nonc3c2[N+](=O)[O-])cc1`, the “hERG current change (%, negative = inhibition) at 10uM” value is listed as 18.1%.

In the case of `O=C1c2ccccc2C(=O)N1CCCc1nc(-c2ccc(Cl)cc2)no1`, the “hERG current change (%, negative = inhibition) at 10uM” value was determined as 10.4%.

On to `O=C1CSC(c2ccccc2)N1Cc1ccccn1` (centres unmarked), for which the “hERG current change (%, negative = inhibition) at 10uM” value was found to be 14.9%.

With `N#C/C(=C\c1ccc(OCCN2CCOCC2)cc1)C(=O)Nc1ccc(S(N)(=O)=O)cc1`, the “hERG current change (%, negative = inhibition) at 10uM” value is 13.7%.

`COc1ccccc1CC(=O)Nc1ccc(-c2noc(COc3ccc(Br)cc3)n2)cc1`: the “hERG current change (%, negative = inhibition) at 10uM” value came out at 8.35%.

Consider `COC(=O)c1ccc(COc2cccc3c2CCN(Cc2cccc(C)c2)C3=O)o1`, for which the “hERG current change (%, negative = inhibition) at 10uM” value is -3.41%.

In the case of `CS(=O)(=O)Nc1ccc2c(c1)nc1n2CCOC1`, the “hERG current change (%, negative = inhibition) at 10uM” value was -3.18%.

`CC(=O)N1CCC(=NNC(=O)c2cccs2)CC1`: the “hERG current change (%, negative = inhibition) at 10uM” value is reported as 1.98%.

For the molecule `COc1cc(Cl)c(C)cc1NC(=O)Cc1cccs1`, the “hERG current change (%, negative = inhibition) at 10uM” value stood at 6.37%.

As to `Cc1c(NC(=S)NC(=O)C2CCCCC2)c(=O)n(-c2ccccc2)n1C`, the “hERG current change (%, negative = inhibition) at 10uM” value is listed as 10.7%.

`O=C(CCCN1C(=O)c2ccccc2C1=O)Nc1ccccc1C(=O)N1CCOCC1`: the “hERG current change (%, negative = inhibition) at 10uM” value is 6.83%.

`COc1ccccc1N=c1scc(-c2ccc3c(c2)NC(=O)CO3)n1CC1CCCO1` (centres unmarked): the “hERG current change (%, negative = inhibition) at 10uM” value is given as -24%.

`CC(=O)Nc1ccc(S(=O)(=O)N2CCN3CCCC3C2)cc1` (centres unmarked): the “hERG current change (%, negative = inhibition) at 10uM” value stood at 12.1%.

Turning to `CC1(O)C(=O)C=C2C=C(c3ccsc3)OC=C2C1=O` (centres unmarked), the “hERG current change (%, negative = inhibition) at 10uM” value turned out to be 2.24%.

In the case of `Cc1ccc2c(c1)c(/C=C/c1cc[n+](C)cc1)c(C)n2C.[I-]`, the “hERG current change (%, negative = inhibition) at 10uM” value is listed as -10.9%.

As to `O=C(CN1CCN(c2ccccn2)CC1)Nc1ccc(F)c(F)c1`, the “hERG current change (%, negative = inhibition) at 10uM” value is on record as -27.6%.

Consider `COc1ccc(-c2nnc(-c3cccs3)o2)cc1OC`, for which the “hERG current change (%, negative = inhibition) at 10uM” value is listed as -19%.

Consider `O=C(OCC1OC(n2ccc(=O)[nH]c2=O)C(O)C1OC(=O)c1ccccc1)c1ccccc1` (centres unmarked), for which the “hERG current change (%, negative = inhibition) at 10uM” value is -67.9%.

For `Cc1cccc(N2CCN(C(=O)c3noc4c3COc3ccc(C)cc3-4)CC2C)c1` (centres unmarked), the “hERG current change (%, negative = inhibition) at 10uM” value is reported as -2.64%.

As for `O=C(Nc1ccc(F)cc1)Nc1ccc(Cl)cn1`, the “hERG current change (%, negative = inhibition) at 10uM” value worked out at 0.00818%.

With `CN(C)c1ncc(C(=O)O)cn1`, the “hERG current change (%, negative = inhibition) at 10uM” value was 12.8%.

For `c1ccc(Cn2nnnc2C(c2ccccn2)N2CCN(c3ccccc3)CC2)cc1` (centres unmarked), the “hERG current change (%, negative = inhibition) at 10uM” value is reported as -22.4%.

Regarding `COc1ccc(N(C)S(=O)(=O)c2cccc(C(=O)Nc3nc(C)c(C(C)=O)s3)c2)cc1`, the “hERG current change (%, negative = inhibition) at 10uM” value worked out at 7.14%.

Consider `CCN1CCN(S(=O)(=O)c2ccc3[nH]c(=O)oc3c2)CC1`, for which the “hERG current change (%, negative = inhibition) at 10uM” value came out at 2.48%.

With `CCOC(=O)c1cccc(NC(=O)CCc2nnc3ccc(N4CCN(C)CC4)nn23)c1`, the “hERG current change (%, negative = inhibition) at 10uM” value is 9.48%.

In the case of `O=C(NC1CCCCC1)c1ccc(-c2ccccc2)cc1`, the “hERG current change (%, negative = inhibition) at 10uM” value is 22.5%.

For the molecule `Cc1ccc2c(c1)N(CC(=O)N1CCC(C)CC1)C(=O)c1cccnc1O2`, the “hERG current change (%, negative = inhibition) at 10uM” value is listed as -11.2%.

Turning to `Cc1nc(NC(=O)CSc2ccccc2N)sc1C`, the “hERG current change (%, negative = inhibition) at 10uM” value is reported as -8.67%.

As to `CN(Cc1ccc2c(c1)OCO2)C(=O)c1cc(-c2ccccc2)c(N2CCOCC2)s1`, the “hERG current change (%, negative = inhibition) at 10uM” value was 9.1%.

As for `COc1ccc(C(=O)N/C(=C\c2ccc(Cl)cc2)C(=O)NCC2CCCO2)cc1` (centres unmarked), the “hERG current change (%, negative = inhibition) at 10uM” value is given as -38%.

With `Cc1ccc(CNC(=O)C2CCC(CNS(=O)(=O)c3cccs3)CC2)cc1` (centres unmarked), the “hERG current change (%, negative = inhibition) at 10uM” value is -18.7%.

In the case of `CCc1nc2ccccc2c(C(=O)Oc2ccc(C(=O)OC)cc2)c1C`, the “hERG current change (%, negative = inhibition) at 10uM” value turned out to be 6.97%.

As to `CCN(CC)CC(=O)N1c2ccccc2Sc2ccccc21`, the “hERG current change (%, negative = inhibition) at 10uM” value is 1.42%.

In the case of `CC(C)Oc1ccc(Oc2ccc(C(F)(F)F)cn2)cc1`, the “hERG current change (%, negative = inhibition) at 10uM” value is 10.9%.

In the case of `O=C1c2ccccc2C(=O)N1CSc1nnnn1-c1ccccc1`, the “hERG current change (%, negative = inhibition) at 10uM” value is -3.73%.

Take `CCOc1ccccc1NC(=O)C(Sc1nnnn1C)c1ccccc1` (centres unmarked): the “hERG current change (%, negative = inhibition) at 10uM” value is -21.2%.

Regarding `Cc1cc(C)nc(N2CCN(CC(=O)NCc3ccccc3)CC2)n1`, the “hERG current change (%, negative = inhibition) at 10uM” value was -6.67%.

As for `CCOC(=O)c1c(NC(=O)C(C)Sc2nnc(C)c(=O)[nH]2)sc2c1CCCC2` (centres unmarked), the “hERG current change (%, negative = inhibition) at 10uM” value amounted to 18.5%.

In the case of `CCC(C)(C)c1ccc2c(c1)C(=O)c1ccccc1C2=O`, the “hERG current change (%, negative = inhibition) at 10uM” value is listed as 4.28%.

For `Cn1c(=O)c2c(SCc3c(F)cccc3Cl)nc(CC(C)(C)C)nc2n(C)c1=O`, the “hERG current change (%, negative = inhibition) at 10uM” value amounted to 12.8%.

With `CC(NC(=O)C(NS(=O)(=O)c1cccc2nsnc12)C(C)C)c1ccccc1` (centres unmarked), the “hERG current change (%, negative = inhibition) at 10uM” value was -5.01%.

For `O=C(/C=C/c1ccc(OCCCF)cc1)Nc1ccnc(-c2cccnc2)n1`, the “hERG current change (%, negative = inhibition) at 10uM” value came out at 17%.

Regarding `COCCCNC(=O)N1c2ccccc2Sc2ccccc21`, the “hERG current change (%, negative = inhibition) at 10uM” value is on record as 4.55%.

On to `CN1CCN(NC(=O)c2cn(-c3ccccc3)nc2-c2cccc(Br)c2)CC1.Cl`, for which the “hERG current change (%, negative = inhibition) at 10uM” value is reported as -0.973%.

On to `CCOc1ccc(NC(=O)CN(C)S(=O)(=O)c2cccc3cccnc23)cc1`, for which the “hERG current change (%, negative = inhibition) at 10uM” value is on record as -5.17%.

`COc1ccc(NC(=O)N(CCN2CCCC2)Cc2cc3cc(OC)c(OC)cc3[nH]c2=O)cc1`: the “hERG current change (%, negative = inhibition) at 10uM” value is on record as -4.32%.

Take `Cn1ncc(SCc2ccccc2)c(Cl)c1=O`: the “hERG current change (%, negative = inhibition) at 10uM” value is recorded as 1.64%.

With `CNC(=O)CN1C(=O)CSc2ncccc21`, the “hERG current change (%, negative = inhibition) at 10uM” value is 10.4%.

Consider `O=C(NCC(=O)N1CCCCCCC1)c1ccccc1Cl`, for which the “hERG current change (%, negative = inhibition) at 10uM” value is reported as 0.569%.

For `Cc1ccc(C(=O)NNC(=O)C2CCN(C(=O)OC(C)(C)C)CC2)cc1`, the “hERG current change (%, negative = inhibition) at 10uM” value was 12.4%.
